Data on 44 molecules can be found in article PMC4336329 (PLoS ONE, 2015).

About 14,000 (4.5%) of roughly 310,000 compounds showed an effect of 50% or more. The effect is printed as a negative number. The list shows a part of the results.
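Further: peak tail current of the secondary pulse compared with the same well before compound.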

Chain of human ether-à-go-go-related gene (hERG) potassium channel (Q12809 whole entry, looked up): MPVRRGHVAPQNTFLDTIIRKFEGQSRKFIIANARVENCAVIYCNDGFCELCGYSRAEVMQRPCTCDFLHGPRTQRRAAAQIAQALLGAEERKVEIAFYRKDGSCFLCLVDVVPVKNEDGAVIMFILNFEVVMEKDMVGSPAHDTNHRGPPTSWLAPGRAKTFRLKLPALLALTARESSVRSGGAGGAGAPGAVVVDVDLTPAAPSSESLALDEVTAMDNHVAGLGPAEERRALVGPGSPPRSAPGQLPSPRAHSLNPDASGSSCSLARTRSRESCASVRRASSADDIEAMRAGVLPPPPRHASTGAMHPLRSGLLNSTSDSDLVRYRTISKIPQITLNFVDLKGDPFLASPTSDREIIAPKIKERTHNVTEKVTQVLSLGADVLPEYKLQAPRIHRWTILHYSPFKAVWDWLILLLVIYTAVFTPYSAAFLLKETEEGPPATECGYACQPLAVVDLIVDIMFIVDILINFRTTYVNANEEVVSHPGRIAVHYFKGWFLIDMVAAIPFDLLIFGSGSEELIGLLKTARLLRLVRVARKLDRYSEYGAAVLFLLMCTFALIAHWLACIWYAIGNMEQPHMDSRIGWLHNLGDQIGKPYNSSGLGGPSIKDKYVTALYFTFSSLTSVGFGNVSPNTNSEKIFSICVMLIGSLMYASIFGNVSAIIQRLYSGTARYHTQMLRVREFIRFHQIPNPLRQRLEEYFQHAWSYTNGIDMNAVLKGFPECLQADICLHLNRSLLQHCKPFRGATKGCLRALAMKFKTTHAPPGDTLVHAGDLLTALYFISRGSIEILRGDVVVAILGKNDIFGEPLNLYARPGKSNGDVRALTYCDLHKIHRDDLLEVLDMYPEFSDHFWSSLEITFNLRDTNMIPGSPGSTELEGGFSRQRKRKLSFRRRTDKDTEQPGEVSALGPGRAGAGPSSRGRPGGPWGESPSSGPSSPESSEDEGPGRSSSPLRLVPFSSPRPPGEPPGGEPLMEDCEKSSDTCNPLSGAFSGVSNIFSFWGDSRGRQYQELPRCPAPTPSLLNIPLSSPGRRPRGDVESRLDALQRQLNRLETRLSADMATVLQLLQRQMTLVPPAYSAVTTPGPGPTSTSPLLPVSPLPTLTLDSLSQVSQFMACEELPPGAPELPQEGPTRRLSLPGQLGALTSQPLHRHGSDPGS

The assay has as its target human ether-à-go-go-related gene (hERG) potassium channel (human, UniProt Q12809). The assay can be described thus: primary screen, population patch clamp on CHO cells stably expressing hERG.
Regarding `CCOc1ccccc1N(CC(=O)O)S(=O)(=O)c1ccc(C)cc1`, the “hERG current change (%, negative = inhibition) at 10uM” value is 12.6%. As to `Cc1ccc2nc(N3CCN(Cc4nnnn4C4CCCC4)CC3)c(C#N)cc2c1`, the “hERG current change (%, negative = inhibition) at 10uM” value is listed as -4.91%. As for `COc1ccc(C(=O)N/N=C/C2CC=CCC2)cc1OC` (centres unmarked), the “hERG current change (%, negative = inhibition) at 10uM” value is 2.01%. The value for `Clc1ccc(OCc2nnc3n2CCCCC3)c(Cl)c1` was -36.4%. As for `CCOC(=O)NC(=O)COC(=O)CNC(=O)c1cccc(OC)c1`, the “hERG current change (%, negative = inhibition) at 10uM” value worked out at 9.79%. The value for `COC(=O)C(C(=O)OC)C(C[N+](=O)[O-])c1ccc(O)c(OC)c1` (centres unmarked) was 3.51%; that for `Cc1ccc(SCc2ccc(C(=O)Nc3cccc([N+](=O)[O-])c3)cc2)cc1` was 6.1%; that for `CN1C(=O)Cc2cc(S(=O)(=O)N3CCN(c4cccc(Cl)c4)CC3)ccc21` was 15.3%. For `O=C(CNC(=O)c1cccs1)NCCN1CCN(c2ccccc2F)CC1`, the “hERG current change (%, negative = inhibition) at 10uM” value was -35.3%.

Turning to `Cc1csc(NC(=O)CCNS(=O)(=O)c2ccc3c(c2)c(=O)n(C)c(=O)n3C)n1`, the “hERG current change (%, negative = inhibition) at 10uM” value is given as 20.8%. With `COc1ccc(-c2sccc2C(C)C(=O)O)cc1` (centres unmarked), the “hERG current change (%, negative = inhibition) at 10uM” value is 11.5%.

Take `COC(=O)c1sccc1NC(=S)N1CCCC(C)C1` (centres unmarked): the “hERG current change (%, negative = inhibition) at 10uM” value is 14.6%. For the molecule `CCOC(=O)c1cc(C(=O)OCC)c2ccccn2c1=O`, the “hERG current change (%, negative = inhibition) at 10uM” value is recorded as -2.57%. On to `CC1CN(C(=O)COc2ccc3ccccc3c2Br)CC(C)O1` (centres unmarked), for which the “hERG current change (%, negative = inhibition) at 10uM” value is on record as -19.5%. For the molecule `COc1ccccc1CNC(=O)CC1C(=O)NCCN1C1Cc2ccccc2C1` (centres unmarked), the “hERG current change (%, negative = inhibition) at 10uM” value turned out to be 6.85%. Turning to `CCc1ccc(N2C(=O)CC(NNc3nc4ccccc4s3)C2=O)cc1` (centres unmarked), the “hERG current change (%, negative = inhibition) at 10uM” value is reported as -2.9%. As to `O=C(Nc1ccc(Oc2cccnc2)cc1)c1ccccc1F`, the “hERG current change (%, negative = inhibition) at 10uM” value is listed as -24.6%. In the case of `Cc1ccc(NNC(=O)Nc2ccc(Cl)cc2)nn1`, the “hERG current change (%, negative = inhibition) at 10uM” value was found to be 11.5%. Turning to `COc1ccc(N2CCOCC2)c(NC(=O)c2cccs2)c1`, the “hERG current change (%, negative = inhibition) at 10uM” value is -6.22%. For the molecule `COc1ccccc1NS(=O)(=O)c1cc(C(=O)NCC(c2cccs2)N2CCOCC2)ccc1C` (centres unmarked), the “hERG current change (%, negative = inhibition) at 10uM” value is -13%. With `Cc1ccc(OCCC(=O)OCC(=O)NC(=O)c2ccccc2)cc1`, the “hERG current change (%, negative = inhibition) at 10uM” value was determined as 7.4%. For `Cc1ccc(S(=O)(=O)N2CCC(C(=O)N[C@H](C(=O)NCc3ccco3)C(C)C)CC2)cc1`, the “hERG current change (%, negative = inhibition) at 10uM” value was -15.9%. Next, `O=C(NCc1ccco1)C(=O)NCC1OCCN1S(=O)(=O)c1ccccc1` (centres unmarked): 1.96%; `Oc1c(C=C2N=c3ccccc3=N2)sc(=S)n1-c1ccccc1`: 21.4%. Turning to `COc1ccccc1NC(=O)Nc1c(C)n(C)n(-c2ccccc2)c1=O`, the “hERG current change (%, negative = inhibition) at 10uM” value was -10.3%. The value for `Cc1onc(-c2ccccc2Cl)c1C(=O)NCc1ccco1` was 4.35%; that for `O=C(COC(=O)c1cccnc1Cl)Nc1ncc(Cl)cc1Cl` was 19.1%. Consider `Cc1ccc(NC(=O)c2cc(C)on2)cc1`, for which the “hERG current change (%, negative = inhibition) at 10uM” value was 7.68%.

As to `COc1ccc(C2CC(c3ccc(OC)cc3)n3nc(N)nc3N2)cc1` (centres unmarked), the “hERG current change (%, negative = inhibition) at 10uM” value came to 10.5%. As for `COc1ccc(S(=O)(=O)N2CCN(C(=O)CC3CC4CCC3C4)CC2)cc1` (centres unmarked), the “hERG current change (%, negative = inhibition) at 10uM” value turned out to be 9.37%.

Consider `COCCNC(=O)/C(C#N)=C/c1cccc(/C=C(\C#N)C(=O)NCCOC)c1`, for which the “hERG current change (%, negative = inhibition) at 10uM” value stood at 0.707%. `Cc1cccc(C)c1NC(=S)N(CCCN1CCN(C)CC1)Cc1cccs1`: the “hERG current change (%, negative = inhibition) at 10uM” value is listed as -47.8%. Consider `O=C(CSc1nc2[nH]ncc2c(=O)n1-c1ccccc1)N1CCCc2ccccc21`, for which the “hERG current change (%, negative = inhibition) at 10uM” value is given as -24.6%. With `O=C(N1CCC(n2nc(-c3ccccc3)oc2=O)CC1)C1(c2ccc(Cl)cc2)CC1`, the “hERG current change (%, negative = inhibition) at 10uM” value is given as -7.07%. As to `CN(C)CCOc1nc(-c2ccccc2)nc2c1oc1ccccc12`, the “hERG current change (%, negative = inhibition) at 10uM” value was -44.7%.

On to `COCCCNC(=O)c1ccc2c(=O)n(Cc3ccccc3OC)c(=S)[nH]c2c1`, for which the “hERG current change (%, negative = inhibition) at 10uM” value is listed as 6.43%.

`CCN(CC)S(=O)(=O)c1ccc(OC)c(NC(=O)c2cc([N+](=O)[O-])ccc2Cl)c1`: the “hERG current change (%, negative = inhibition) at 10uM” value was found to be 11.4%. For the molecule `Cc1cccc(N2CN(Cc3cccnc3)CNC2=S)c1`, the “hERG current change (%, negative = inhibition) at 10uM” value was -3.28%. Consider `CCOc1ccc(N2CC(C(=O)NCCC3=CCCCC3)CC2=O)cc1` (centres unmarked), for which the “hERG current change (%, negative = inhibition) at 10uM” value is recorded as -11.1%.

Turning to `COc1ccccc1CNC(=O)c1ccc2ccccc2n1`, the “hERG current change (%, negative = inhibition) at 10uM” value is on record as -12.1%. Consider `Cc1sc(NC(=O)c2cccc([N+](=O)[O-])c2)c(C(N)=O)c1-c1ccc(C(C)(C)C)cc1`, for which the “hERG current change (%, negative = inhibition) at 10uM” value was -3.34%. As to `CCN(CC)CCNC(=O)Cn1nc(-c2ccccc2)c2ccccc2c1=O`, the “hERG current change (%, negative = inhibition) at 10uM” value was -31%. With `CCOc1ccc(NC(=O)CN2C(=O)COc3ccc(Cl)cc32)cc1`, the “hERG current change (%, negative = inhibition) at 10uM” value came to 0.412%. As for `Fc1ccc(-n2c(-c3cccs3)nc3nc4ccccc4nc32)cc1`, the “hERG current change (%, negative = inhibition) at 10uM” value came out at 9.07%.
